{"source": "PubChem BioAssay AID1956", "about": "(SRMLSC, 2009)", "note": "Screen size: about 220,000 compounds; about 10 (0.005%) were called active. The inconclusive results got no clear call from the source; some entries with a clear call stand among them for comparison. No stated cut-off is given here; in the data, active means maximum fold increase above about 1.5; inconclusive means no clear call, values can overlap the other calls; inactive means below that; tested in PC3 cells."}
{"assay": "enhancers of HSV replication in host cells, fold increase, host cell viability (AID 1956)", "conditions": "HSV replication augmentation in cells; at 0.098 µM, active compounds read high"}
{"smiles": "O=c1[nH]c(=O)n(CCC2=CCCCC2)c(O)c1/C=N/Nc1cccc2ccccc12", "maximum fold increase": "inconclusive"}
{"smiles": "OC(c1ccc(F)cc1)(c1ccc(F)cc1)[C@@H]1CCCN1", "maximum fold increase": "inactive"}
{"smiles": "O=C1NC(=O)N(c2ccccc2)C(=O)/C1=C/c1ccoc1", "maximum fold increase": "inconclusive"}
{"smiles": "N#Cc1c(/N=C/C2C(=O)NC(=S)NC2=O)sc2c1CCCC2", "maximum fold increase": "inconclusive"}
{"smiles": "Cc1cc(C=C2C(=O)N(C)C(=S)N(C)C2=O)c(C)n1-c1cccnc1", "maximum fold increase": "inconclusive"}
{"smiles": "O=C1OC(c2ccc([N+](=O)[O-])cc2)=N/C1=C/N1CC2CC(C1)c1cccc(=O)n1C2", "note": "(stereo unspecified)", "maximum fold increase": "inconclusive"}
{"smiles": "C/C(=N\\Nc1cccc2ccccc12)c1c(O)n(Cc2ccccc2)c(=O)[nH]c1=O", "maximum fold increase": "inconclusive"}
{"smiles": "COCCNC(=O)c1c(N)n(Cc2ccco2)c2nc3ccccc3nc12", "maximum fold increase": "inconclusive"}
{"smiles": "COc1cccc(NP(=O)(Oc2ccc(Cl)cc2)Oc2ccc(Cl)cc2)c1", "maximum fold increase": "inactive"}
{"smiles": "NS(=O)(=O)c1cccc(N2CCNCC2)c1", "maximum fold increase": "inactive"}
{"smiles": "CCOC(=O)c1c(/N=C/C2C(=O)NC(=S)NC2=O)sc2c1CCC2", "maximum fold increase": "inconclusive"}
{"smiles": "Cc1ccc(N2C(=O)NC(=O)/C(=C\\c3ccoc3)C2=O)cc1", "maximum fold increase": "inconclusive"}
{"smiles": "Nc1ccc2nonc2c1[N+](=O)[O-]", "maximum fold increase": "inconclusive"}
{"smiles": "C=CCN1C(=O)NC(=O)/C(=C/c2ccoc2)C1=O", "maximum fold increase": "inconclusive"}
{"smiles": "CC(C)c1ccc(N2C(=O)NC(=O)/C(=C/c3cnc(-c4ccccc4)nc3)C2=O)cc1", "maximum fold increase": "inconclusive"}
{"smiles": "CN1C(=O)C(=Cc2sc(=O)n(-c3ccccc3)c2N(C)C)C(=O)N(C)C1=O", "maximum fold increase": "inconclusive"}
{"smiles": "CN1C(=O)C(=Cc2ccc(N3CCCCCC3)o2)C(=O)N(C)C1=S", "maximum fold increase": "inconclusive"}
{"smiles": "Cc1ccc(-n2c(O)c(/C=C/C=Nc3ccccc3)c(=O)[nH]c2=O)cc1", "maximum fold increase": "inconclusive"}
{"smiles": "CN1CCN(c2nc3ccccn3c(=O)c2C=C2C(=O)N(C)C(=O)N(C)C2=O)CC1", "maximum fold increase": "inconclusive"}
{"smiles": "CCCCn1c(O)c(C(C)=NCCCn2ccnc2)c(=O)[nH]c1=O", "maximum fold increase": "inconclusive"}
{"smiles": "O=C1NC(=O)C2=Cc3ccc(O)cc3OC2(O)N1", "note": "(stereo unspecified)", "maximum fold increase": "inconclusive"}
{"smiles": "Cc1cccc(N2C(=O)NC(=O)/C(=C/c3ccc([N+](=O)[O-])o3)C2=O)c1", "maximum fold increase": "inconclusive"}
{"smiles": "O=C1NC(=O)N(Cc2ccc(F)cc2)C(=O)/C1=C\\c1ccoc1", "maximum fold increase": "inconclusive"}
{"smiles": "CCCCC(=O)N/N=C/c1c(O)n(CC)c(=S)n(CC)c1=O", "maximum fold increase": "inconclusive"}
{"smiles": "Cc1cc(C)cc(N2C(=O)/C(=C\\c3ccc(N4CCN(C)CC4)o3)C(=O)NC2=S)c1", "maximum fold increase": "inconclusive"}
{"smiles": "Nc1c(C(=O)NCC2CCCO2)c2nc3ccccc3nc2n1Cc1ccco1", "note": "(stereo unspecified)", "maximum fold increase": "inconclusive"}
{"smiles": "O=C1NC(=O)N(c2ccc(Cl)cc2)C(=O)/C1=C\\c1ccc(Sc2nc3ccccc3[nH]2)o1", "maximum fold increase": "inconclusive"}
{"smiles": "Nc1c(C(=O)NCCN2CCOCC2)c2nc3ccccc3nc2n1Cc1ccco1", "maximum fold increase": "inconclusive"}
{"smiles": "CN1CCC2(CC1)C(C#N)=C(N)NC(S)=C2C#N", "maximum fold increase": "inconclusive"}
{"smiles": "Cc1ccc2cc(C=C(C#N)C#N)c(Cl)nc2c1", "maximum fold increase": "inconclusive"}
{"smiles": "Cc1ccc(N2C(=O)NC(=O)/C(=C\\c3cc(C)n(-c4sc5c(c4C#N)CCCC5)c3C)C2=O)cc1", "maximum fold increase": "inconclusive"}
{"smiles": "COc1ccc(-n2c(O)c(/C=C/C=Nc3ccccc3)c(=O)[nH]c2=O)cc1", "maximum fold increase": "inconclusive"}
{"smiles": "CCCCN1C(=O)/C(=C/C=C/c2ccco2)C(=O)NC1=S", "maximum fold increase": "inconclusive"}
{"smiles": "CC1(C)OC(c2ccccc2)=C/C(=C/C=C2C(=O)NC(=O)NC2=O)O1", "maximum fold increase": "inconclusive"}
{"smiles": "CNc1cc(Cl)c2nonc2c1[N+](=O)[O-]", "maximum fold increase": "inactive"}
{"smiles": "CC(C)[C@H]1C(=O)N2CCC[C@H]2[C@]2(O)O[C@](NC(=O)[C@@H]3C=C4c5cccc6[nH]cc(c56)C[C@H]4N(C)C3)(C(C)C)C(=O)N12", "maximum fold increase": "inconclusive"}
{"smiles": "O=c1[nH]c(=O)n(-c2ccc(F)cc2)c(O)c1C=NCCN1CCCCC1", "maximum fold increase": "inconclusive"}
{"smiles": "O=C(NC(c1ccc(Cl)cc1)P(=O)(Oc1ccccc1)Oc1ccccc1)OCc1ccccc1", "note": "(stereo unspecified)", "maximum fold increase": "inconclusive"}
{"smiles": "CCOC(=O)C1CCCN(c2ccc([N+](=O)[O-])c3nonc23)C1", "note": "(stereo unspecified)", "maximum fold increase": "inconclusive"}
{"smiles": "O=c1c2ccccc2nc(/C=C/c2ccc(O)cc2)n1-c1cccc(O)c1", "maximum fold increase": "inconclusive"}
{"smiles": "O=c1c2ccccc2nc(/C=C/c2ccc(O)cc2)n1-c1ccccc1O", "maximum fold increase": "inconclusive"}
{"smiles": "CCN(CC)c1ccc(N=Cc2c(O)n(Cc3ccco3)c(=O)[nH]c2=O)cc1", "maximum fold increase": "inconclusive"}
{"smiles": "Cc1noc(C)c1C(=O)N1CCC2(CC1)OCCO2", "maximum fold increase": "inactive"}
{"smiles": "COc1ccc(CN2C(=O)NC(=O)/C(=C/c3ccoc3)C2=O)cc1", "maximum fold increase": "inconclusive"}
{"smiles": "CCOC(=O)c1sc(N=Nc2c(O)[nH]c(=O)[nH]c2=O)c(C(=O)OCC)c1C", "maximum fold increase": "inactive"}
{"smiles": "C#CCN1C(=O)S/C(=C\\c2ccc(N3CCOCC3)cc2C)C1=O", "maximum fold increase": "inactive: 1.07"}
{"smiles": "CCOP(=O)(OCC)c1cccc(OP(=O)(c2cccc([N+](=O)[O-])c2)c2cccc([N+](=O)[O-])c2)c1", "maximum fold increase": "inconclusive"}
{"smiles": "O=C(NCCN1CCCCC1)c1ccc(Cl)nc1Cl", "maximum fold increase": "inconclusive"}
{"smiles": "O=C1NC(=O)N(c2ccc(F)cc2)C(=O)/C1=C/c1ccc2c(c1)CCCN2Cc1ccccc1", "maximum fold increase": "inconclusive"}
{"smiles": "O=C1NC(=O)N(c2cccc(Cl)c2)C(=O)/C1=C\\c1ccc(Sc2nc3ccccc3[nH]2)o1", "maximum fold increase": "inconclusive"}
{"smiles": "COc1cccc(-n2c(/C=C/c3ccc(O)c(O)c3)nc3ccccc3c2=O)c1", "maximum fold increase": "inconclusive"}
{"smiles": "Cc1cc(/C=C2\\C(=O)NC(=O)N(c3ccc(Cl)cc3)C2=O)c(C)n1-c1sc2c(c1C#N)CCCC2", "maximum fold increase": "inconclusive"}
{"smiles": "Cc1cccc(-n2c(O)c(/C=N/Nc3nc4c(c(=O)n(C)c(=O)n4C)n3C)c(=O)[nH]c2=S)c1", "maximum fold increase": "inconclusive"}
{"smiles": "C=CCNC(=O)c1c(N)n(Cc2ccco2)c2nc3ccccc3nc12", "maximum fold increase": "inconclusive"}
{"smiles": "O=c1[nH]c(=O)n(-c2ccccc2)c(O)c1/C=C/C=Nc1ccccc1", "maximum fold increase": "inconclusive"}
{"smiles": "COc1ccc(CN2C(=O)NC(=O)/C(=C/c3ccc([N+](=O)[O-])o3)C2=O)cc1", "maximum fold increase": "inconclusive"}
